# Source: PubChem BioAssay AID504332 (National Center for Advancing Translational Sciences (NCATS), 2011)
# The whole screen tested about 350,000 compounds, of which about 31,000 (8.9%) were called active. Inconclusive means that the source gave no clear call. Such entries were picked first, then a sample of the others. The call rests on the fitted dose curve; in most records, active means well fitted inhibition curve with a large enough effect; inconclusive means small, poorly fitted or top-dose-only effect; inactive means no such curve, though single readings can be large or run the other way. Where the call is inconclusive, the potency comes from a doubtful curve fit.
# Target: Histone-lysine N-methyltransferase EHMT2 (Homo sapiens) (UniProt Q96KQ7)
# Sequence of UniProt Q96KQ7 (Q96KQ7 whole entry, looked up): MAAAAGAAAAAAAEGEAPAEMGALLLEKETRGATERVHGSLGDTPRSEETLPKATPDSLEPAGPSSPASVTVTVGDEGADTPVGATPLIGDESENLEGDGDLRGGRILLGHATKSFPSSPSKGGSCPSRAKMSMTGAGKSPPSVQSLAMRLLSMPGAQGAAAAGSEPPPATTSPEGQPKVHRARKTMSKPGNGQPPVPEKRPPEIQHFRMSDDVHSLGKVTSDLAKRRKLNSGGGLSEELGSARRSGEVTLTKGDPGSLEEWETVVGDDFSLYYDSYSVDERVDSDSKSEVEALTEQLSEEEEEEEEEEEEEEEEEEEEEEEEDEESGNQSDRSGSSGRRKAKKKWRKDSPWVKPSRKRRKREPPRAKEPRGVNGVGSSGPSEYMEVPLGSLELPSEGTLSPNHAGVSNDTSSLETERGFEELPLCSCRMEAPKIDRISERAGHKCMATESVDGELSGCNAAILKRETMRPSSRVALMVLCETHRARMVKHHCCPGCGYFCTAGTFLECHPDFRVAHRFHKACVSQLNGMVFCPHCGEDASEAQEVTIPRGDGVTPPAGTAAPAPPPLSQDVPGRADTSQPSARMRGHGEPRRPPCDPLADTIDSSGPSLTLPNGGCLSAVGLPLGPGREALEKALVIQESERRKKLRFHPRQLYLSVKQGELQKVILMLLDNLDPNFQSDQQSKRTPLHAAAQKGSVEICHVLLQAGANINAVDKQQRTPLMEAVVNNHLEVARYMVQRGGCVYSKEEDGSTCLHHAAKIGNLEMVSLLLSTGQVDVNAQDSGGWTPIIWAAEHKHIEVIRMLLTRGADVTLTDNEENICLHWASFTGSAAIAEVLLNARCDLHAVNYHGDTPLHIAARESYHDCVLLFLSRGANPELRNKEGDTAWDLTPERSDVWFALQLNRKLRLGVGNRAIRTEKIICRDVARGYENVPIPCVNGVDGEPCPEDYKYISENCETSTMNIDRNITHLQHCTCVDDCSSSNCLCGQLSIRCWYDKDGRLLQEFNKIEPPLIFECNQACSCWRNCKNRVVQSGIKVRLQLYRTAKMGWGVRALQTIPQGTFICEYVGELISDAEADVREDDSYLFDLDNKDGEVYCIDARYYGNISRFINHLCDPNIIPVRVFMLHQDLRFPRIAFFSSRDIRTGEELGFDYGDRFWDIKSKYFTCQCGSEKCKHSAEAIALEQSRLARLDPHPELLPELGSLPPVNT
# Experiment: qHTS Assay for Inhibitors of Histone Lysine Methyltransferase G9a; further: nearly all actives have a fitted effect of over 75% in size
# Details: G9a H3K9 monomethylation, AlphaScreen, 2 h; activity, negative = inhibition: at 59 µM (top of the series) unless noted
# In short: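 Step 1: enzyme (final 20 nM) with compound, 15 min RT. Step 2: substrate peptide 500 nM and SAM 20 uM, 2 h RT. Step 3: anti-H3K9me1 antibody and AlphaScreen beads, 10 min, then plate read.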
# On the % scale 0 is the no-effect control and ±100 the full control effect; potency means the concentration at half of the fitted maximal effect; tags describe the fitted curve by direction and shape.
Structure (SMILES),"activity, negative = inhibition",Potency
Cc1ccccc1-n1c(=O)cc(N2CCc3ccccc32)[nH]c1=O,inactive: 18.8%,
COc1cccc(-c2ccc3ncnc(NCc4ccc(OC)cc4OC)c3c2)c1,inactive: -5.89% [at 0.501 µM],
COc1ccc(C(=O)NC(=S)N2CCN(c3ccc([N+](=O)[O-])cc3)CC2)cc1,inactive: -2.99%,
Nc1c2c(nc3sc4c(c13)CCCC4)-c1ccccc1CC2,inactive: -1.26% [at 102 µM],
CCN(c1ccccc1)c1nnc(NC(=O)Nc2cccc(Cl)c2C)s1,,"inconclusive: 39.8 µM [inhibitor, partial curve, poor fit]"
COCC(C)N=C1NN=C(c2cccs2)C(CC(=O)O)S1 (centres undefined),,active: 50.1 µM
COc1ccc(NC(=O)Nc2ccc(N3CCOCC3)c3nonc23)c(OC)c1,,"inconclusive: 89.1 µM [inhibitor, single point]"
Cc1cccc(-c2c3c(=O)n(C)c(=O)n(C)c3cn2-c2cc(N)c(Cl)cc2Cl)c1,,"inconclusive: 14.1 µM [inhibitor, partial curve]"
O=C(Nc1ccc(N2CCCC2)cc1)c1ccc(Br)o1,,active: 2.24 µM
CC(=O)Nc1ccc(Nc2nnc(-c3ccc(C)c(S(=O)(=O)NCC4CCCO4)c3)c3ccccc23)cc1 (centres undefined),,"inconclusive: 50.1 µM [inhibitor, partial curve, poor fit]"
CC1CCN(Cc2c(C(=O)N3CCc4ccccc4C3)nc3ccc(Cl)cn23)CC1,,"inconclusive: 50.1 µM [inhibitor, partial curve]"
CCOCCCNC(=O)c1cc2c(-c3ccc(OC)c(OC)c3)nn(C)c2s1,,"inconclusive: 28.2 µM [inhibitor, partial curve, poor fit]"
CCN1CCN(c2ccc(S(=O)(=O)N3CCCCC3)cc2NC(=O)c2cccc(OC(F)F)c2)CC1,,active: 12.6 µM
COc1ccc(-n2c(Cc3cccn3C)nnc2SCC(=O)Nc2ccccc2C)cc1,,"inconclusive: 89.1 µM [inhibitor, single point]"
Clc1ccc(CN=C(Nc2ccccc2)NC2CCCCC2)cc1,,"inconclusive: 35.5 µM [inhibitor, partial curve, poor fit]"
CCOC(=O)/C(C#N)=C/c1ccc(OC(=O)c2ccco2)c(OCC)c1,,"inconclusive: 79.4 µM [inhibitor, single point]"
Cc1c2cnn(CC(=O)NCc3ccc(F)cc3)c(=O)c2c(C)n1Cc1ccccc1F,inactive: -1.25%,
O=C(O)c1ccccc1-c1c2cc(Br)c(=O)c(Br)c-2oc2c(Br)c(O)c(Br)cc12,,"inconclusive: 3.55 µM [inhibitor, partial curve, poor fit]"
Cc1ccc(S(=O)(=O)NCCN2CCOCC2)cc1,,"inconclusive: 100 µM [inhibitor, single point]"
COc1ccc(OC)c(-c2csc(NC(=O)C3=COCCO3)n2)c1,,"inconclusive: 50.1 µM [inhibitor, partial curve]"
O=C(O)c1cccc(N2CCCC2)c1,,"inconclusive: 3.98 µM [inhibitor, partial curve]"
CC(C)NC(=S)N1CCN(C/C=C/c2ccccc2)CC1,inactive: 5.27% [at 102 µM],

Structure (SMILES),"activity, negative = inhibition",Potency
S=C(NCc1ccccn1)Nc1cccc(Cl)c1,inactive: 16.6% [at 0.501 µM],
CN(C(=O)CSc1nc2c(c(=O)[nH]1)CCCC2)C1CCCCC1,inactive: 14.7%,
Cc1oc(-c2ccc(Cl)cc2)nc1CS(=O)CC(=O)NCCN1CCCCCC1 (centres undefined),,"inconclusive: 79.4 µM [inhibitor, single point]"
O=C(CSc1nnc(-c2cccnc2)s1)Nc1ccnc2ccccc12,,"inconclusive: 25.1 µM [inhibitor, single point]"
O=C(Nc1ccc2c(c1)OCO2)c1ccccn1,,active: 1.58 µM
Cc1ccc(NCc2ccccc2-c2nnc(-c3ccccc3Cl)o2)c(C)c1,inactive: -49.5%,
O=C([C@@H]1Cc2ccccc2CN1)N1CCN(Cc2ccccc2)CC1,,active: 31.6 µM
CC1c2ccccc2SC(CCCN(C)C)c2ccccc21 (centres undefined),,active: 56.2 µM
COC(=O)c1ccc(NC(=O)CCn2cccc2)cc1,inactive: -14.1%,
CN(C)S(=O)(=O)c1cccc(NC(=O)c2cccc(NS(=O)(=O)c3ccccc3)c2)c1,,"inconclusive: 70.8 µM [inhibitor, single point]"
O=C(NCCc1ccccc1)c1ccc2c(c1)S(=O)(=O)c1cc(Cl)ccc1C2=O,inactive: 17.8% [at 2.33 µM],
CC1=CC(c2ccc(Cl)cc2)n2nc(NC(=O)CCCC(=O)O)nc2N1 (centres undefined),,active: 50.1 µM
Cc1nnc(NC(=O)Cn2cnc3c2c(=O)n(C)c(=O)n3C)s1,,"inconclusive: 22.4 µM [inhibitor, single point]"
O=C1CSC(=S)N1/N=C/c1ccc2c(c1)OCCO2,,"inconclusive: 79.4 µM [inhibitor, single point]"
CC(C)Cn1c(SCC(=O)N(C)c2c(N)n(Cc3ccccc3)c(=O)[nH]c2=O)nc2ccccc21,,active: 15.8 µM
CCOC(=O)C(Sc1nnc2c3ccccc3n(CC)c2n1)C(=O)OCC,,"inconclusive: 3.55 µM [inhibitor, single point]"
CCC(C)c1ccc2oc(-c3ccc(NC(=O)c4ncn[nH]4)cc3)nc2c1 (centres undefined),inconclusive: -99.3% [inhibitor],
CN1CCc2ccccc2C1C1CCNCC1 (centres undefined),,"inconclusive: 79.4 µM [inhibitor, partial curve, poor fit]"
Cc1ccc2c(c1)c1c(c(=O)n(-c3ccccc3C)c(=O)n1CC(=O)NCc1ccccc1)n2C,,"inconclusive: 6.31 µM [inhibitor, partial curve, poor fit]"
O=S(=O)(c1ccccc1)N1CCC2(CC1)CO2,,"inconclusive: 79.4 µM [inhibitor, single point]"
CCOC(=O)c1ccc(N2C(=O)c3n[nH]c(-c4cccs4)c3C2c2ccc(C(C)C)cc2)cc1 (centres undefined),,"inconclusive: 20 µM [inhibitor, partial curve, poor fit]"
O=C(COC(=O)c1cc(S(=O)(=O)N2CCCCC2)ccc1Cl)NCc1ccco1,,"inconclusive: 79.4 µM [inhibitor, partial curve, poor fit]"
